# From the supplement of paper PMC8728848
# The list shows a part of the results.
# B1: DrGal3 (Danio rerio) (protein)
# chain: MDLSDALDAPPQQNNQQAGGPVWPGQPANPVWPGQPANPTWPGQPNQPAWPGQPNQQWPGQPGQPTAPGWPGPAPQTGPYGAPGQAPQVLTVPLDFPLQNGAYNKMLITINGEVKPNAKQFTVNLRRGNDIAFHINPRFSEGGKPVIVRNSMIGNNWGREERELPSFPFVPGKPFEMKILITDTEYKVAVNKSHLLEFKHRVFELNQITGLSIYNDVTLSTVNVETLQ
# Experiments:
# Assay in all cases: glycan array binding signal (z-score within array); higher = stronger binding
# Details in all cases: glycan notation: IUPAC condensed, linker removed
# [1] = target: Neu5Ac(a2-3)Gal(b1-3)[Neu5Ac(a2-6)]GlcNAc(b1-3)[Fuc(a1-3)[Gal(b1-4)]GlcNAc(b1-6)]Gal(b1-4)Glc
# Method in brief: (§1)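 The Consortium for Functional Glycomics database supplied 3228 glycan arrays, of which those lacking an available protein sequence were dropped. The binding signal, a within-array Z-score, was averaged across arrays of the same protein sequence and across linkers. Negative scores can be read as non-binding.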
# [2] = target: Neu5Ac(a2-3)Gal(b1-3)]Neu5Ac(a2-3)Gal(b1-4)]GlcNAc
# Method in brief: as §1
# Neu5Ac(a2-3)Gal(b1-4)Glc = target: Neu5Ac(a2-3)Gal(b1-4)Glc
# Method in brief: as §1
# [3] = target: Neu5Ac(a2-3)Gal(b1-4)GlcNAc
# Method in brief: as §1
# [4] = target: Neu5Ac(a2-3)Gal(b1-4)GlcNAc(b1-2)Man
# Method in brief: as §1
# [5] = target: Neu5Ac(a2-3)Gal(b1-4)GlcNAc(b1-2)Man(a1-3)[GlcNAc(b1-4)][Neu5Ac(a2-3)Gal(b1-4)GlcNAc(b1-2)Man(a1-6)]Man(b1-4)GlcNAc(b1-4)GlcNAc
# Method in brief: as §1
# [6] = target: Neu5Ac(a2-3)Gal(b1-4)GlcNAc(b1-2)Man(a1-3)[Neu5Ac(a2-3)Gal(b1-4)GlcNAc(b1-2)Man(a1-6)]Man(b1-4)GlcNAc(b1-4)GlcNAc
# Method in brief: as §1
# [7] = target: Neu5Ac(a2-3)Gal(b1-4)GlcNAc(b1-2)Man(a1-3)[Neu5Ac(a2-3)Gal(b1-4)GlcNAc(b1-2)Man(a1-6)]Man(b1-4)GlcNAc(b1-4)[Fuc(a1-6)]GlcNAc
# Method in brief: as §1
# [8] = target: Neu5Ac(a2-3)Gal(b1-4)GlcNAc(b1-2)Man(a1-3)[Neu5Ac(a2-6)Gal(b1-4)GlcNAc(b1-2)Man(a1-6)]Man(b1-4)GlcNAc(b1-4)GlcNAc
# Method in brief: as §1
# [9] = target: Neu5Ac(a2-3)Gal(b1-4)GlcNAc(b1-2)[Neu5Ac(a2-3)Gal(b1-4)GlcNAc(b1-4)]Man(a1-3)[GlcNAc(b1-4)][Neu5Ac(a2-3)Gal(b1-4)GlcNAc(b1-2)[Neu5Ac(a2-3)Gal(b1-4)GlcNAc(b1-6)]Man(a1-6)]Man(b1-4)GlcNAc(b1-4)GlcNAc
# Method in brief: as §1
# [10] = target: Neu5Ac(a2-3)Gal(b1-4)GlcNAc(b1-2)[Neu5Ac(a2-3)Gal(b1-4)GlcNAc(b1-4)]Man(a1-3)[GlcNAc(b1-4)][Neu5Ac(a2-3)Gal(b1-4)GlcNAc(b1-4)Man(a1-6)]Man(b1-4)GlcNAc(b1-4)GlcNAc
# Method in brief: as §1
# [11] = target: Neu5Ac(a2-3)Gal(b1-4)GlcNAc(b1-2)[Neu5Ac(a2-3)Gal(b1-4)GlcNAc(b1-6)]Man(a1-6)[Neu5Ac(a2-3)Gal(b1-4)GlcNAc(b1-2)Man(a1-3)]Man(b1-4)GlcNAc(b1-4)GlcNAc
# Method in brief: as §1
# [12] = target: Neu5Ac(a2-3)Gal(b1-4)GlcNAc(b1-2)[Neu5Ac(a2-3)Gal(b1-4)GlcNAc(b1-6)]Man(a1-6)[Neu5Ac(a2-3)Gal(b1-4)GlcNAc(b1-2)Man(a1-3)][GlcNAc(b1-4)]Man(b1-4)GlcNAc(b1-4)GlcNAc
# Method in brief: as §1
# [13] = target: Neu5Ac(a2-3)Gal(b1-4)GlcNAc(b1-3)Gal
# Method in brief: as §1
# [14] = target: Neu5Ac(a2-3)Gal(b1-4)GlcNAc(b1-3)Gal(b1-3)GlcNAc
# Method in brief: as §1
# [15] = target: Neu5Ac(a2-3)Gal(b1-4)GlcNAc(b1-3)Gal(b1-4)GlcNAc
# Method in brief: as §1
# [16] = target: Neu5Ac(a2-3)Gal(b1-4)GlcNAc(b1-3)Gal(b1-4)GlcNAc(b1-2)Man(a1-3)[Neu5Ac(a2-3)Gal(b1-4)GlcNAc(b1-3)Gal(b1-4)GlcNAc(b1-2)Man(a1-6)]Man(b1-4)GlcNAc(b1-4)GlcNAc
# Method in brief: as §1
# [17] = target: Neu5Ac(a2-3)Gal(b1-4)GlcNAc(b1-3)Gal(b1-4)GlcNAc(b1-3)Gal(b1-4)GlcNAc
# Method in brief: as §1
# [18] = target: Neu5Ac(a2-3)Gal(b1-4)GlcNAc(b1-3)Gal(b1-4)GlcNAc(b1-3)Gal(b1-4)GlcNAc(b1-2)Man(a1-3)[Neu5Ac(a2-3)Gal(b1-4)GlcNAc(b1-3)Gal(b1-4)GlcNAc(b1-3)Gal(b1-4)GlcNAc(b1-2)Man(a1-6)]GalNAc
# Method in brief: as §1
# [19] = target: Neu5Ac(a2-3)Gal(b1-4)GlcNAc(b1-3)Gal(b1-4)GlcNAc(b1-3)GalNAc
# Method in brief: as §1
# [20] = target: Neu5Ac(a2-3)Gal(b1-4)GlcNAc(b1-3)Gal(b1-4)GlcNAc(b1-3)[Neu5Ac(a2-3)Gal(b1-4)GlcNAc(b1-3)Gal(b1-4)GlcNAc(b1-6)]GalNAc
# Method in brief: as §1
# [21] = target: Neu5Ac(a2-3)Gal(b1-4)GlcNAc(b1-3)Gal(b1-4)GlcNAc(b1-6)[Gal(b1-3)]GalNAc
# Method in brief: as §1
# [22] = target: Neu5Ac(a2-3)Gal(b1-4)GlcNAc(b1-3)Gal(b1-4)[Fuc(a1-3)]GlcNAc
# Method in brief: as §1
# [23] = target: Neu5Ac(a2-3)Gal(b1-4)GlcNAc(b1-3)GalNAc
# Method in brief: as §1
# [24] = target: Neu5Ac(a2-3)Gal(b1-4)GlcNAc(b1-3)[Neu5Ac(a2-3)Gal(b1-4)GlcNAc(b1-6)]GalNAc
# Method in brief: as §1
# [25] = target: Neu5Ac(a2-3)Gal(b1-4)GlcNAc(b1-6)GalNAc
# Method in brief: as §1
# [26] = target: Neu5Ac(a2-3)Gal(b1-4)GlcNAc(b1-6)[Gal(b1-3)]GalNAc
# Method in brief: as §1
# [27] = target: Neu5Ac(a2-3)Gal(b1-4)GlcNAc(b1-6)[Neu5Ac(a2-3)Gal(b1-3)]GalNAc
# Method in brief: as §1
# [28] = target: Neu5Ac(a2-3)Gal(b1-4)GlcNAc6S
# Method in brief: as §1
# [29] = target: Neu5Ac(a2-3)Gal(b1-4)[Fuc(a1-3)]GlcNAc
# Method in brief: as §1
# [30] = target: Neu5Ac(a2-3)Gal(b1-4)[Fuc(a1-3)]GlcNAc(b1-2)Man
# Method in brief: as §1
# [31] = target: Neu5Ac(a2-3)Gal(b1-4)[Fuc(a1-3)]GlcNAc(b1-3)Gal
# Method in brief: as §1
# [32] = target: Neu5Ac(a2-3)Gal(b1-4)[Fuc(a1-3)]GlcNAc(b1-3)Gal(b1-4)GlcNAc
# Method in brief: as §1
# [33] = target: Neu5Ac(a2-3)Gal(b1-4)[Fuc(a1-3)]GlcNAc(b1-3)Gal(b1-4)[Fuc(a1-3)]GlcNAc(b1-3)Gal(b1-4)[Fuc(a1-3)]GlcNAc
# Method in brief: as §1
# [34] = target: Neu5Ac(a2-3)Gal(b1-4)[Fuc(a1-3)]GlcNAc(b1-3)GalNAc
# Method in brief: as §1
# [35] = target: Neu5Ac(a2-3)Gal(b1-4)[Fuc(a1-3)]GlcNAc(b1-6)[Gal(b1-3)]GalNAc
# Method in brief: as §1
# [36] = target: Neu5Ac(a2-3)Gal(b1-4)[Fuc(a1-3)]GlcNAc(b1-6)[Neu5Ac(a2-3)Gal(b1-3)]GalNAc
# Method in brief: as §1
# [37] = target: Neu5Ac(a2-3)Gal(b1-4)[Fuc(a1-3)]GlcNAc6S
# Method in brief: as §1
# [38] = target: Neu5Ac(a2-3)Gal6S(b1-4)GlcNAc
# Method in brief: as §1
binder,measurement,setting,value
B1,glycan array binding signal (z-score),[1],-0.238
same,glycan array binding signal (z-score),[2],-0.161
same,glycan array binding signal (z-score),Neu5Ac(a2-3)Gal(b1-4)Glc,-0.166
same,glycan array binding signal (z-score),[3],-0.251
same,glycan array binding signal (z-score),[4],-0.201
same,glycan array binding signal (z-score),[5],-0.266
same,glycan array binding signal (z-score),[6],-0.226
same,glycan array binding signal (z-score),[7],-0.153
same,glycan array binding signal (z-score),[8],-0.19
same,glycan array binding signal (z-score),[9],-0.261
same,glycan array binding signal (z-score),[10],-0.181
same,glycan array binding signal (z-score),[11],-0.318
same,glycan array binding signal (z-score),[12],-0.271
same,glycan array binding signal (z-score),[13],-0.246
same,glycan array binding signal (z-score),[14],-0.063
same,glycan array binding signal (z-score),[15],0.528
same,glycan array binding signal (z-score),[16],0.33
same,glycan array binding signal (z-score),[17],2.06
same,glycan array binding signal (z-score),[18],1.02
same,glycan array binding signal (z-score),[19],0.009
same,glycan array binding signal (z-score),[20],0.088
same,glycan array binding signal (z-score),[21],0.078
same,glycan array binding signal (z-score),[22],-0.238
same,glycan array binding signal (z-score),[23],-0.211
same,glycan array binding signal (z-score),[24],-0.208
same,glycan array binding signal (z-score),[25],-0.277
same,glycan array binding signal (z-score),[26],0.15
same,glycan array binding signal (z-score),[27],-0.266
same,glycan array binding signal (z-score),[28],-0.189
same,glycan array binding signal (z-score),[29],-0.25
same,glycan array binding signal (z-score),[30],-0.26
same,glycan array binding signal (z-score),[31],-0.222
same,glycan array binding signal (z-score),[32],-0.022
same,glycan array binding signal (z-score),[33],-0.191
same,glycan array binding signal (z-score),[34],-0.163
same,glycan array binding signal (z-score),[35],-0.188
same,glycan array binding signal (z-score),[36],-0.184
same,glycan array binding signal (z-score),[37],-0.175
same,glycan array binding signal (z-score),[38],-0.163
